About 64,000 (15%) of roughly 420,000 compounds were called active. Inconclusive means that the source gave no clear call. Such entries were picked first, then a sample of the others. Calls follow the shape of the dose curve; as a rule, active = well fitted inhibition curve with a large enough effect; inconclusive = small, poorly fitted or top-dose-only effect; inactive = flat fitted curve, though single readings scatter. Potencies of inconclusive entries are left out as doubtful fits.
Assay: qHTS for Inhibitors of human tyrosyl-DNA phosphodiesterase 1 (TDP1): qHTS in cells in absence of CPT; also: nearly all actives have a fitted effect of over 55% in size
Conditions: DT40 Tdp1-/- hTDP1 cells, no CPT, ATP luminescence, 48 h; activity change, negative = growth inhibition: at 46.2 µM (top of the series) unless noted
Outline: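 Luminescent ATP content (CellTiter-Glo) served as the growth readout. Knockout chicken DT40 cells expressing human TDP1 were exposed to compounds without camptothecin for a minimum 48 hr at 37 °C.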
% is scaled to controls: 0 for no effect and ±100 for the full control effect; potency is read from the fitted curve at half-maximal effect; tags tell the direction and shape of the fitted curve.

Compound	activity change, negative = growth inhibition	Potency
Cc1ccc(C)n1-c1nccc(-c2cccs2)n1	inconclusive: -36.3% [inhibitor]	
O=C(/C=C/c1ccc2ccccc2c1)c1ccoc1		inconclusive [inhibitor, partial curve]
O=C1CC(N2CCC(c3nc4ccccc4o3)CC2)C(=O)N1c1cc(Cl)cc(Cl)c1 (stereo not drawn)		inconclusive [inhibitor, single point]
CNC(=O)c1ccc(NC(=O)c2nsc3ccccc23)cc1		inconclusive [inhibitor, single point]
COc1ccc(NC(=O)Cc2nnc(SCC(=O)NC3CCCCC3)n2C)cc1		inactive
CCOC(=O)c1ccc(NC(=O)Cn2nnc(-c3ccc(C(F)(F)F)cc3)n2)cc1		inconclusive [inhibitor, partial curve]
CCn1c(SCC(=O)c2cccs2)nnc1-c1cccs1		inactive
Cc1ccc(-c2csc(=Nc3ccccc3)n2CCCO)cc1		active: 10.3 µM
COc1ccc(NC(=O)c2cccc(S(=O)(=O)N3CCc4ccccc43)c2)cn1		inconclusive [inhibitor, single point]
CCC1CN(CCNC(=O)c2ccnc(Cl)c2)Cc2cc(OC)ccc2O1 (stereo not drawn)		inconclusive [inhibitor, single point]
CCC(C)(C)NC(=O)Cn1c(=O)oc2cc(S(=O)(=O)N3CC(C)CC(C)C3)ccc21 (stereo not drawn)		inactive
Cc1nn(Cc2ccccc2Cl)c(Cl)c1C(=O)NCCc1ccccc1		inconclusive [inhibitor, single point]
O=C(NCc1cccnc1)NC1(c2ccccc2)CC1		inactive
O=C(NCc1ccc(F)cc1)C1CCCN1S(=O)(=O)c1ccccc1C(F)(F)F (stereo not drawn)		inconclusive [inhibitor, partial curve]
CCCC1S/C(=N/N=C/c2ccc(OC)cc2)N(Cc2ccccc2)C1=O (stereo not drawn)		inconclusive [inhibitor, single point]
CC1CCCCC1NC(=O)COC(=O)COc1ccccc1F (stereo not drawn)		inactive
COC(=O)[C@@]12CCCCN1[C@H](c1ccc(-c3ccc4c(c3)OCO4)c(OC)c1)[C@@H]1C(=O)N(C)C(=O)[C@@H]12		inconclusive [inhibitor, single point]
Cc1cccc(-c2nc3sc(C)cc3c(=O)o2)c1		inconclusive [inhibitor, single point]
c1cnc2c(-c3cccc4nccn34)cccc2c1		inconclusive [inhibitor, single point]
COCCNC(=O)/C(C#N)=C1\N=C(NC(=O)c2ccco2)c2ccccc21		inconclusive [inhibitor, single point]
Cc1ccc(-n2c(SCc3nc(-c4ccccc4C)no3)nnc2-c2ccncc2)cc1C		active: 20.6 µM
O=C(O)CNS(=O)(=O)c1ccc(C2CCCCC2)cc1		inactive
O=C(O)c1nn(CCOc2c(Cl)cccc2Cl)c(=O)c2ccccc12		inconclusive [inhibitor, partial curve]
Cc1ccc2c(CN3CCOCC3)cc(=O)oc2c1C		inactive

Compound	activity change, negative = growth inhibition	Potency
Cc1ccccc1C(=O)NC(=S)N(Cc1ccccc1)c1ccccn1		inconclusive [inhibitor, single point]
CS(=O)(=O)N(CCc1ccccc1)CC(=O)NCc1ccco1		inactive
COc1ccc(C(C(=O)NC2CCCC2)N(CC2CCCO2)C(=O)Cc2cccs2)cc1OC (stereo not drawn)		inactive
Cc1ccc(C)c(S(=O)(=O)N2CCN(CC(=O)NC(=O)NCc3ccco3)CC2)c1		inconclusive [inhibitor, partial curve, poor fit]
CCc1ccc(NC(=O)CCS(=O)(=O)c2ccc3c(c2)oc(=O)n3C)cc1		inactive
CSc1ccccc1NC(=O)c1ccccc1C		inactive
CCOc1ccc(C(=O)NNC(=O)c2cc(S(=O)(=O)N3CCOCC3)ccc2Cl)cc1		inactive
CCOC(=O)C1CSC(CC(=O)Nc2ccc(OC(F)(F)F)cc2)C(=O)N1 (stereo not drawn)		inactive
COc1ccc2[nH]cc(CCN3C(=O)CCC3=O)c2c1		inactive
O=C(Cc1ccccc1)Nc1nc(-c2cccc([N+](=O)[O-])c2)cs1		inconclusive [inhibitor, single point]
COc1ccc(NC(=O)Cn2nc(Cc3cccnc3)c3ccccc3c2=O)c(OC)c1		inactive
O=C(Nc1nccs1)c1cc(N2CCOCC2)nc2ccccc12		inactive
CC(=O)c1ccc(-c2ccc(C(=O)NCC(c3ccc(F)cc3)N3CCOCC3)o2)cc1 (stereo not drawn)		inconclusive [inhibitor, single point]
CCOc1ccc2nc(SCc3ccc(F)cc3)sc2c1		inconclusive [inhibitor, single point]
COc1cc(C(=O)Nc2ccc(-c3nnc(-c4ccco4)o3)cc2)cc(OC)c1OC		inconclusive [inhibitor, partial curve]
c1coc(-c2cc3nc(NC4CCCCC4)ccn3n2)c1		active: 20.6 µM
O=C(NCCc1ccc(F)cc1)C1CCC(=O)N(CC2CCCCC2)C1 (stereo not drawn)		inactive
N#Cc1ccc(-c2nc3c4ccccc4ccn3c2CC2CCCCC2)cc1		inactive
COc1ccccc1/C=C/C(=O)OCC(=O)Nc1c(C)nn(-c2ccccc2)c1C		inconclusive [inhibitor, single point]
CCc1ccc(-n2c(CCC(=O)O)ccc2-c2ccc(F)cc2)cc1		inactive
CC(=O)c1cccc(NC(=O)/C(=C\c2cccnc2)NC(=O)c2ccccc2)c1		inconclusive [inhibitor, single point]
O=C(Cn1cnc2c(nnn2Cc2ccc(F)cc2)c1=O)N1CCCc2ccccc21		inconclusive [inhibitor, single point]
O=C1NC[C@H](CCCCN2C[C@H](Cc3ccccc3)N(Cc3ccccc3)C(=O)C2=O)N(CCC2CCCCC2)C1=O		active: 18.4 µM
CCCCN1C(=O)N(CCc2ccc(F)cc2)S(=O)(=O)c2cc(C(F)(F)F)ccc21		inconclusive [inhibitor, single point]

Source: PubChem BioAssay AID686978 (National Center for Advancing Translational Sciences (NCATS), 2013)
